Measurements published in PubChem BioAssay AID504339 (National Center for Advancing Translational Sciences (NCATS), 2011).
Out of some 390,000 compounds screened, about 17,000 (4.4%) were called active. Inconclusive results, whose numbers are uncertain, are shown with a selection of clear calls. Calls follow the shape of the dose curve; as a rule, active = well fitted inhibition curve with a large enough effect; inconclusive = small, poorly fitted or top-dose-only effect; inactive = no such curve, though single readings can be large or run the other way. Potencies of inconclusive entries are doubtful fits and often do not repeat.
Also: nearly all actives have a fitted effect of over 50% in size.
Potency is read from the fitted curve at half-maximal effect; tags tell the direction and shape of the fitted curve.

What follows are compounds tested against Lysine-specific demethylase 4A (Homo sapiens) (UniProt O75164) (assay: qHTS Assay for Inhibitors of JMJD2A-Tudor Domain). Conditions: AlphaScreen JMJD2A-Tudor / H3K4me3 peptide binding; series mostly up to 114 µM.
Sequence of UniProt O75164 (O75164 whole entry, looked up, the tested form may be a part): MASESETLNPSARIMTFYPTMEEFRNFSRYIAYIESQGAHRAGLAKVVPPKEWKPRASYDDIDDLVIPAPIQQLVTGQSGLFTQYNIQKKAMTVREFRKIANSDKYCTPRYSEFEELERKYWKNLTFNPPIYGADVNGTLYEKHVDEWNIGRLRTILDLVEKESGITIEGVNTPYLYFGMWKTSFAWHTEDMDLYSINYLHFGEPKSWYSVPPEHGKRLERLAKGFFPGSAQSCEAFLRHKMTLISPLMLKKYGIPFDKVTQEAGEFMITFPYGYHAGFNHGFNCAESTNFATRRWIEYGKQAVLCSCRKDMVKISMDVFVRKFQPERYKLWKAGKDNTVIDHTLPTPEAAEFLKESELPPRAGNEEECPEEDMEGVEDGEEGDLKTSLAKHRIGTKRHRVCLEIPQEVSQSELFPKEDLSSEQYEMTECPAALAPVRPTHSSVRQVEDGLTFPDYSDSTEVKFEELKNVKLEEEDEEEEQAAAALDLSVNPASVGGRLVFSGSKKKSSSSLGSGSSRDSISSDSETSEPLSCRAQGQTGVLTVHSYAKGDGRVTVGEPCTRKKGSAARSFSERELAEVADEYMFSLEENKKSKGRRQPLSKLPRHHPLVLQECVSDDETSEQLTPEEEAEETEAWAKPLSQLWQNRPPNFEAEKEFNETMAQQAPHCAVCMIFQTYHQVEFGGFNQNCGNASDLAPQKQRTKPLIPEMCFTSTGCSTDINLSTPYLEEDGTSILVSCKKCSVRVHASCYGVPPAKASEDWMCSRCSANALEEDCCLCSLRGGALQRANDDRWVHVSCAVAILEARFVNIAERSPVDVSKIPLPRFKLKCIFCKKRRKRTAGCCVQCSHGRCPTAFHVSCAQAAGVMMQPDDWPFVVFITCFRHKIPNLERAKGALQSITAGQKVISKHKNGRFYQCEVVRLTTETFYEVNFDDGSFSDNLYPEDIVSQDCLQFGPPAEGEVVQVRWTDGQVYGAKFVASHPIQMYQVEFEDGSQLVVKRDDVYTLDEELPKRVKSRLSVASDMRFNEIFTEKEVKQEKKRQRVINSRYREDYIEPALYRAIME
`Cc1ccc(Cl)cc1N1CCN(S(=O)(=O)c2ccc3[nH]c(=O)ccc3c2)CC1` was tested, and the Potency was “inactive”. For `COCc1ccc(C(=O)N2CCCC(Nc3ccc(C(C)C)cc3)C2)s1` (configuration not stated), the Potency was inconclusive: 56.2 µM [inhibitor, partial curve]. For `C=CCc1cccc(/C=N/NC(=O)CCCNc2ccc(C)cc2)c1O`, the Potency was inconclusive: 17.8 µM [inhibitor, partial curve]. With `C/C(=N\NC(=O)c1nnn(-c2nonc2N)c1CN(C)c1ccccc1)c1ccc(O)cc1` the Potency was “inactive”. `CC(=O)Nc1ccc(NCC(O)COc2ccccc2)cc1` (configuration not stated) was tested, and the Potency was inconclusive: 79.4 µM [inhibitor, partial curve]. For `CC1CCCCC1NC(=O)CN1c2cccc3cccc(c23)S1(=O)=O` (configuration not stated), the Potency was “inactive”. In the case of `COc1cccc(CN(Cc2cccnc2)S(=O)(=O)c2ccc(-n3cnnn3)c(C)c2)c1`, the Potency is reported as active: 89.1 µM. For `O=C(NC(=S)Nc1ccc(N2CCCCC2)cc1)c1ccco1`, the Potency was active: 39.8 µM. For `Cc1ccc(C)c(N2CCN(CCCNC(=O)Cn3cc4c(n3)CCCCC4)CC2)c1`, the Potency was inconclusive: 100 µM [inhibitor, single point]. `CC(C)Cc1csc(NC(=O)c2ccc(Br)cc2)c1C(=O)O` was tested, and the Potency was “inactive”. With `C/C(=C\c1ccccc1)CN1CCC(C(=O)N2CCCCC2)CC1` the Potency was active: 7.94 µM. For `CCNc1cc(N2CCCC2)ccc1[N+](=O)[O-]`, the Potency was inconclusive: 100 µM [inhibitor, partial curve, poor fit]. With `Cc1[nH]c2ccccc2c1C1(O)C(=O)N(Cc2ccccc2Cl)c2ccccc21` (configuration not stated) the Potency was inconclusive: 44.7 µM [inhibitor, partial curve]. With `CNS(=O)(=O)c1cn(CC(=O)N(C)Cc2ccccc2)cc1S(=O)(=O)NC` the Potency was “inactive”. In the case of `CCCCNC(=O)c1cccc(C(=O)NCCCC)c1`, the Potency is reported as “inactive”. `Clc1ccccc1CN1CCN(/N=C/c2ccncc2)CC1` was tested, and the Potency was inconclusive: 79.4 µM [inhibitor, partial curve]. For `Cc1cc(C)c(S(=O)(=O)/N=C2/C=C(SCC(=O)O)C(=O)c3ccccc32)cc1C`, the Potency was active: 25.1 µM. In the case of `CCOc1ccc(OCC)c(NC(=O)CCc2nc3cccnc3n2-c2ccccc2)c1`, the Potency is reported as inconclusive: 8.91 µM [inhibitor, full curve, poor fit]. In the case of `Cc1ccc(S(=O)(=O)Nc2cc(S(=O)(=O)c3ccc(C)cc3)c(O)c3cccnc23)cc1`, the Potency is reported as “inactive”. For `Cc1nn(-c2ccc(N3CCCC3)nn2)c(C)c1CCC(=O)N1CCN(c2ccccc2)CC1`, the Potency was “inactive”. With `O=C(COC(=O)c1ccc(O)cc1O)N=c1sccn1Cc1ccccc1Cl` the Potency was “inactive”. In the case of `COc1ccc2cc(C(=O)N3CCN(Cc4ccc5c(c4)OCO5)CC3)[nH]c2c1`, the Potency is reported as “inactive”.
